Data as given in PubChem BioAssay AID624418 (National Center for Advancing Translational Sciences (NCATS), 2012).
In all, about 410,000 compounds went through this assay and about 530 (0.13%) were called active. Inconclusive results, whose numbers are uncertain, are shown with a selection of clear calls. The call rests on the fitted dose curve; in most records, active means well fitted inhibition curve with a large enough effect; inconclusive means small, poorly fitted or top-dose-only effect, or another doubt; inactive means no such curve, though single readings can be large or run the other way. Where the call is inconclusive, the potency comes from a doubtful curve fit.

Assay: qHTS of GLP-1 Receptor Inverse Agonists: Cytotox Screen
Details: HEK293 cAMP-luciferase reporter cells, luminescence, 24 h; activity change, negative = inhibition: at 38.3 µM (top of the series) unless noted
Procedure, shortened: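 Here, cytotoxicity is scored as loss of luminescence. The MLSMR collection was tested on cells seeded in medium containing 10% Nu serum, with a 24 hr compound exposure preceded by 12 hours of culture.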
On the % scale 0 is the no-effect control and ±100 the full control effect; potency means the concentration at half of the fitted maximal effect.

Structure (SMILES)	Potency	activity change, negative = inhibition
C=C(C)C(=O)OCC(=O)NCc1ccccc1	active: 11.2 µM	
CCOc1ccc(CSC2=NCCN2)cc1Cl	inconclusive: 28.2 µM [inhibitor, single point]	
CSc1nc(O)c(C(c2cccc([N+](=O)[O-])c2)c2c(O)nc(SC)[nH]c2=O)c(=O)[nH]1		inactive: -5.53%
Cn1cc([N+](=O)[O-])c(C(=O)Nc2ccn(Cc3c(F)c(F)cc(F)c3F)n2)n1	inconclusive: 1.78 µM [inhibitor, partial curve, poor fit]	
CCc1ccc(-c2cn(-c3nc(C)cc(C)n3)c(=N)o2)cc1	inconclusive: 4.47 µM [inhibitor, partial curve, poor fit]	
Cc1cc(N2CCN(c3ccc(C(F)(F)F)cc3[N+](=O)[O-])CC2)c2ccccc2n1	inconclusive: 10 µM [inhibitor, single point]	
CCC(C(=O)N1CCN(c2ccccc2)CC1)n1nc(C)c2sc3ccccc3c2c1=O (centres undefined)		inactive: 11.4%
C=C(C)CNC(=S)N/N=C/C1=CCC2CC1C2(C)C (centres undefined)	inconclusive: 11.2 µM [inhibitor, partial curve, poor fit]	
O=C1[C@@H](Oc2ccccc2)[C@@H](c2cnc3ccccc3c2)N1c1ccccc1	inconclusive: 3.98 µM [inhibitor, partial curve, poor fit]	
O=C(/C=C/c1cccs1)Nc1nncs1	inconclusive: 5.62 µM [inhibitor, partial curve]	
CCOc1ccccc1C1CC(=O)Nc2cc(C)c(C)cc21 (centres undefined)	inconclusive: 3.55 µM [inhibitor, full curve, poor fit]	
COc1ccc(C2=C(CN(C)C)C(c3ccccc3)c3ccccc3O2)cc1 (centres undefined)	inconclusive: 5.62 µM [inhibitor, partial curve]	
Cc1ccc(C)c(N2CCN(CCCNC(=O)Nc3ccc(Cl)cc3)CC2)c1	inconclusive: 28.2 µM [inhibitor, single point]	
O=C(Nc1nnc(COc2ccccc2)s1)C1CCN(S(=O)(=O)c2ccc(Cl)cc2)CC1	inconclusive: 20 µM [inhibitor, single point]	
CC(C)(C)c1cc(=O)[nH]c(SCc2ccccc2)n1	inconclusive: 28.2 µM [inhibitor, single point]	
Cc1ccc(C(=O)Nc2ccc3nc(N4CCCCC4)cc(C)c3c2)cc1F		inactive: -7.27%
OC(c1ccc2ccccc2c1)c1ncc(-c2cccc3ccccc23)[nH]1 (centres undefined)	inconclusive: 28.2 µM [inhibitor, single point]	
Cc1c(Cc2ccccc2)c(=O)n2c([nH]c3ccccc32)c1C#N	inconclusive: 28.2 µM [inhibitor, single point]	
CCN(CC)c1ccc(/C=N/NC(=O)c2ccc3nc[nH]c3c2)c(O)c1		inactive: 417%
NC(=O)CC(NC(=O)c1ccccc1)c1ccc(NC2CCCCCCC2)c([N+](=O)[O-])c1 (centres undefined)	inconclusive: 22.4 µM [inhibitor, single point]	
Cc1cccc(C)c1NC(=O)CN1C(=O)c2cccc3cccc1c23		inactive: -13.1%
CCOc1ccc(NC(=O)CN2C(=O)C3(SCC(=O)N3c3ccc(F)cc3)c3ccccc32)cc1 (centres undefined)		inactive: -10.6%

Structure (SMILES)	Potency	activity change, negative = inhibition
COc1ccc(Oc2nc(-c3ccccn3)ncc2OC)cc1	inconclusive: 10 µM [inhibitor, partial curve, poor fit]	
COc1ccc2cc(C(=O)NC3CCCCC3)c(=O)oc2c1		inactive: -3.15%
COc1cccc(CN2CCNC(=O)C2CC(=O)NCc2cn3cccc(C)c3n2)c1OC (centres undefined)	inconclusive: 14.1 µM [inhibitor, single point]	
CCCCc1ccc(-c2csc(/C(C#N)=C/c3ccc(C)o3)n2)cc1		inactive: 54%
CCOC(=O)C1(Cc2cccc(F)c2)CCN(C2CCOCC2)CC1	inconclusive: 14.1 µM [inhibitor, single point]	
CC(C)(C)c1ccc(C(=O)N2CCC(=O)N([C@H](COCc3ccccc3)Cc3ccccc3)CC2)cc1	inconclusive: 11.2 µM [inhibitor, single point]	
COc1cccc(C(C)NC(=O)Nc2ccccc2Cl)c1 (centres undefined)		inactive: 23.5%
CCOC(=O)CCc1ccc(NC(=O)/C=C/c2ccc([N+](=O)[O-])o2)cc1	active: 11.2 µM	
NNC(=O)c1ccc(CSc2nc3ccccc3s2)cc1		inactive: 2.66%
CSc1nc(Oc2ccc3ccccc3c2)c2sccc2n1	inconclusive: 10 µM [inhibitor, single point]	
S=C(NCc1ccco1)Nc1ccc(Br)cn1	inconclusive: 7.94 µM [inhibitor, partial curve, poor fit]	
O=[N+]([O-])c1ccc(O)c(/C=N/Nc2nc3ccccc3[nH]2)c1	inconclusive: 22.4 µM [inhibitor, single point]	
Cc1c(C(=O)NCc2ccccc2Cl)sc2nc[nH]c(=O)c12		inactive: -10.6%
Cc1ccc(-n2nc3c(=O)n(CCCC(=O)NCc4ccccc4F)nc(C)c3c2C)cc1	inconclusive: 31.6 µM [inhibitor, partial curve, poor fit]	
N=C1/C(=C/c2ccc(-c3cccc(C(=O)O)c3)o2)C(=O)N=C2SC=C(c3ccccc3)N12	inconclusive: 28.2 µM [inhibitor, single point]	
CN(C)c1ccc(N=Nc2ccc(C(=O)O)cc2)cc1	inconclusive: 12.6 µM [inhibitor, partial curve]	
CCn1cc(C(=O)NCc2ccc(C)cc2)c(=O)c2cc(S(=O)(=O)N3CCc4ccccc4C3)ccc21		inactive: -11.4%
O=C1NC(=O)C(=Cc2ccccc2[N+](=O)[O-])S1	inconclusive: 10 µM [inhibitor, partial curve, poor fit]	
COc1ccccc1NC(=O)c1c(N=Cc2c(O)ccc3ccccc23)cnn1C	inconclusive: 8.91 µM [inhibitor, partial curve]	
CN(C)c1ccc(CNC2CC(C)(C)NC(C)(C)C2)cc1	inconclusive: 15.8 µM [inhibitor, single point]	
CCOC(=O)c1c(C)oc2nc(C)nc(NCc3ccccc3OC)c12		inactive: 7.93%
Cc1cc2cc(C(c3nnnn3C3CCCC3)N(Cc3cccnc3)Cc3ccco3)c(=O)[nH]c2cc1C (centres undefined)	inconclusive: 5.01 µM [inhibitor, partial curve, poor fit]	
